Measured values reported in article PMC2424043, “Organelle-specific isoenzymes of plant V-ATPase as revealed by in vivo-FRET analysis” (BMC Cell Biology, 2008).
Results are given in words; binding and its absence hold for the method and conditions named. Binding seen in cells or lysates may run through a third protein. Some results given as binding are weak or reduced against the parent protein; the word gives no strength. Tags and fused reporters may be left off the sequences shown.

T1: VHA-e2 (V-ATPase subunit e, isoform 2) fused to CFP or YFP (A. thaliana) (UniProt Q9SZ13)
T1 sequence: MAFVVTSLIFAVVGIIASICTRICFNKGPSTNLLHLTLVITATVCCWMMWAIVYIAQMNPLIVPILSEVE

T2: VHA-c"1 (V-ATPase proteolipid subunit c", isoform 1) fused to CFP or YFP (A. thaliana) (UniProt Q9SZY7)
T2 sequence: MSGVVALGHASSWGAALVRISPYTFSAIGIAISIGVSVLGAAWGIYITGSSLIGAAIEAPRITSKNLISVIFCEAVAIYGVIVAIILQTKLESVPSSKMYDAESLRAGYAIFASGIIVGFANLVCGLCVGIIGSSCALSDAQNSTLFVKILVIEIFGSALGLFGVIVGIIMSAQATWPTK

T3: VHA-c3 (V-ATPase proteolipid subunit c, isoform 3) fused to CFP or YFP (A. thaliana) (UniProt P0DH93)
T3 sequence: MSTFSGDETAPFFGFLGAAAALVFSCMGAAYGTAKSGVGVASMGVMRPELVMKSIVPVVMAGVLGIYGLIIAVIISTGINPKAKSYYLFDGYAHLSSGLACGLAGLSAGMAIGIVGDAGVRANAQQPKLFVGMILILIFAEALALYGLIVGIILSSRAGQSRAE

B1: VHA-e1 (V-ATPase subunit e, isoform 1) fused to CFP or YFP (natural protein, A. thaliana, UniProt Q9FLN5 1-70, looked up)
chain: MGFLITTLIFVVVGIIASLCVRICCNRGPSTNLLHLTLVITATVCCWMMWAIVYIAQMNPLIVPILSETE
notes: VHA-e1, A. thaliana, At5g55290, open reading frame without the stop codon; One molecule for the CFP and the YFP fusion; also called VHA-e isoform 1; AtVHA-e1; source: A. thaliana mesophyll protoplasts, transiently transfected, in living cells; not shown: CFP or YFP, C-terminal, kept
B2: VHA-c"_(trunc) (third and fourth helices of VHA-c"1) fused to CFP (domain or fragment, A. thaliana, UniProt Q9SZY7 88-180, looked up)
chain: QTKLESVPSSKMYDAESLRAGYAIFASGIIVGFANLVCGLCVGIIGSSCALSDAQNSTLFVKILVIEIFGSALGLFGVIVGIIMSAQATWPTK
notes: VHA-c"1 aa 88-180 (helices 3 and 4), A. thaliana; Intermediate construct of the hybrid in vector 35S-CFP-C; fused to the C-terminus of the fluorescent protein; also called truncated VHA-c"; VHA-c"1_(trunc); source: A. thaliana mesophyll protoplasts, transiently transfected, in living cells; not shown: CFP, N-terminal, kept
B3: hybrid proteolipid subunit (VHA-c helices 3-4 and VHA-c"1 helices 3-4) fused to CFP (protein, UniProt P0DH93 80-164; Q9SZY7 88-180)
chain: NPKAKSYYLFDGYAHLSSGLACGLAGLSAGMAIGIVGDAGVRANAQQPKLFVGMILILIFAEALALYGLIVGIILSSRAGQSRAEQTKLESVPSSKMYDAESLRAGYAIFASGIIVGFANLVCGLCVGIIGSSCALSDAQNSTLFVKILVIEIFGSALGLFGVIVGIIMSAQATWPTK
B4: VHA-e2 (V-ATPase subunit e, isoform 2) fused to CFP or YFP (natural protein, A. thaliana, UniProt Q9SZ13 1-70, looked up)
chain: T1 sequence
notes: VHA-e2, A. thaliana, At4g26710, open reading frame without the stop codon; One molecule for the CFP and the YFP fusion; also called VHA-e isoform 2; VHA-e2-CFP; source: A. thaliana mesophyll protoplasts, transiently transfected, in living cells; not shown: CFP or YFP, C-terminal, kept
B5: VHA-c"1 (V-ATPase proteolipid subunit c", isoform 1) fused to CFP or YFP (protein, UniProt Q9SZY7 1-180)
chain: T2 sequence
B6: VHA-c"1 fused to the N-terminal or the C-terminal fragment of YFP (BiFC constructs) (protein, UniProt Q9SZY7 1-180)
chain: T2 sequence

Legend:
[1] = biological target: VHA-e1 (V-ATPase subunit e, isoform 1) fused to CFP or YFP (A. thaliana) (UniProt Q9FLN5); test: FRET or BRET; in vivo FRET by sensitized acceptor emission (confocal laser scanning microscopy) in co-transfected A. thaliana mesophyll protoplasts; CFP fusion as donor, YFP fusion as acceptor; a FRET value of 8-10% is taken as background
[2] = biological target: T1, VHA-e2 (V-ATPase subunit e, isoform 2) fused to CFP or YFP (A. thaliana); test: as above
[3] = biological target: T2, VHA-c"1 (V-ATPase proteolipid subunit c", isoform 1) fused to CFP or YFP (A. thaliana); test: as above
[4] = biological target: T3, VHA-c3 (V-ATPase proteolipid subunit c, isoform 3) fused to CFP or YFP (A. thaliana); test: as above
[5] = biological target: VHA-c"1 fused to the N-terminal or the C-terminal fragment of YFP (BiFC constructs) (A. thaliana) (UniProt Q9SZY7); test: split reporter; bimolecular fluorescence complementation in A. thaliana mesophyll protoplasts; YFP fragments fused to the C-terminus of VHA-c"; YFP fluorescence normalised to co-transfected 35S-CFP

Row | Binder | binding [2] | binding [3] | binding [4] | also measured
1 | B1 | binds | no binding |  | binding [1]: binds
2 | B2 |  |  | binds | 
3 | B3 |  |  | binds | 
4 | B4 | binds |  |  | 
5 | B5 |  | no binding | binds | 
6 | B6 |  |  |  | binding [5]: no binding
